The values below come from PubChem BioAssay AID488969 (Vanderbilt High Throughput Screening Facility, 2010).

In all, about 110,000 compounds were measured (“z-score”: median about -0.1, highest 2% from about 2 on). Some of the results follow.

For this assay, the target named is Metabotropic glutamate receptor 8 (Rattus norvegicus) (UniProt P70579). The assay can be described thus: rat mGluR8 modulators via GIRK flux, primary screen, cell-based, thallium flux, HTS (AID 488969). As to conditions: HEK293 rat mGluR8, GIRK (G protein-gated inwardly rectifying potassium channel) thallium flux, FluoZin2; at 10 µM; stronger effect = higher value; submaximal glutamate (EC20) added with thallium.
Chain of UniProt P70579 (P70579 whole entry, looked up): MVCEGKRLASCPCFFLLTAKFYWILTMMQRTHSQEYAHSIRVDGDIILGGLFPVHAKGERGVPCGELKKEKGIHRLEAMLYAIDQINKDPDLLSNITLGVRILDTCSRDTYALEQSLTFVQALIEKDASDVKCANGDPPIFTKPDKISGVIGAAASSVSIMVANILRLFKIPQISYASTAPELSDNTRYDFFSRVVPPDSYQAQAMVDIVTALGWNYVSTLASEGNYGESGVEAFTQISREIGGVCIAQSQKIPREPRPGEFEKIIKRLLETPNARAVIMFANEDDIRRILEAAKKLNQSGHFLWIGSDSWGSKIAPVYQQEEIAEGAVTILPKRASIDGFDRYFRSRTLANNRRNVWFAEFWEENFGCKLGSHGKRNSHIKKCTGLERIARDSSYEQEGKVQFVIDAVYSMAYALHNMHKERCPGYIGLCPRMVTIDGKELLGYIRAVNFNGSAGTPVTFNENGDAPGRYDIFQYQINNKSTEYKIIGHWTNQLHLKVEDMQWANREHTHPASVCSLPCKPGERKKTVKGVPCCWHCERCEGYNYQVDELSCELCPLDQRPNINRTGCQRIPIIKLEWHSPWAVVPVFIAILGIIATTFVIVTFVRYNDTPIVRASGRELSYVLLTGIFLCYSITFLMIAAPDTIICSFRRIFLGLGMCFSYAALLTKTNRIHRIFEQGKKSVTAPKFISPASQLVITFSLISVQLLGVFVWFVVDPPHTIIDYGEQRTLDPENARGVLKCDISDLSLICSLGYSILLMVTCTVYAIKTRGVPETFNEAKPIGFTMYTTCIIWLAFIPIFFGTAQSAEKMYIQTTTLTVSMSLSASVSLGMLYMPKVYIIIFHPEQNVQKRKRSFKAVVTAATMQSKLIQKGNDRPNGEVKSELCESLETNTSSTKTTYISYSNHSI
Molecule `Nc1nonc1C(=O)NCCNCc1ccccc1OCc1ccc(F)cc1` gave a z-score of 0.932. The value for `COc1ccc(-c2nc(CSCC(=O)N3CCN(C)CC3)c(C)o2)cc1OC` was -0.0626; that for `CC(=O)Nc1ccc(NC(=O)CSc2ccc(-c3ccc4c(c3)OCO4)nn2)cc1` was 0.189; that for `C=C(C)CNC(=S)/N=c1\scc(C)n1CC` was 0.0475. As for `Cc1cc(OC(C)C)c2c(-c3ccccc3)cc(=O)oc2c1`, the z-score is -0.594.

For the molecule `CCOC(=O)C1CCC(CNCc2ccc(Cl)cc2)CC1` (stereo unspecified), the z-score was -1.85.

In turn, `COC(=O)c1sccc1NC(=O)CCC1CCCC1` yielded a z-score of -0.354. The value for `O=C1NC(c2ccccc2)(C(F)(F)F)SC2=NCCCN12` (stereo unspecified) was 0.684; that for `O=c1cc(CN2CCN(c3cccc(Cl)c3)CC2)c2cc(O)c(-c3ccccc3)cc2o1` was -0.175. The value for `Cc1ccc2c(c1C)NC(=O)C2(O)CC(=O)c1ccc2c(c1)OCO2` (stereo unspecified) was 0.111; that for `COc1ccc(NC(=O)CCN2C(=O)C3C4CCC(C4)C3C2=O)cc1` (stereo unspecified) was 1.07. `Cc1cc(C)cc(CC2CC(=O)N(c3cc(C)on3)C2=O)c1` (stereo unspecified) came in with a z-score of -0.0765.

Take `CSc1nc2ccccc2n1Cc1cccc(F)c1`: the z-score was -0.682. The value for `Cc1cc(=O)oc2cc(OCC3CC(c4ccccc4)=NO3)ccc12` (stereo unspecified) was -0.445. The value for `Cc1ccc(Cn2c(=N)n(CC(O)COc3ccccc3)c3ccccc32)cc1` (stereo unspecified) was 2.98. Next, `COc1ccc(C2/C(=C(\O)c3cc(C)ccc3C)C(=O)C(=O)N2CCN(C)C)cc1OC` (stereo unspecified): 0.36.

On to `CCCOc1ccc(C(=O)N2CCN(c3ccc(NC(=O)CC)cc3Cl)CC2)cc1`, for which the z-score was -0.254. `N#Cc1c(NC(=O)CSc2nnc(-c3ccccc3)o2)sc2c1CCCC2`: the z-score was -0.225. The value for `COc1cccc(-c2nc(CS(=O)(=O)CC(=O)Nc3cc(C)ccc3C)c(C)o2)c1` was -1.75. Molecule `O=C(Nc1cc(Cl)ccc1N1CCOCC1)c1cnccn1` registered a z-score of 0.036. Next, `COc1ccc(CCNC(=O)COc2ccc(S(=O)(=O)NC3CCCCC3)cc2Cl)cc1OC`: -0.141. The value for `COC(=O)c1cc(OC)c(OC)cc1NC(=O)CCc1ccc(C)o1` was -0.276. Next, `Cc1cc2c(c(=O)n1Cc1ccccn1)C(C(C)C)C(C#N)=C(N)O2` (stereo unspecified): 0.416. In turn, `CCOc1ncccc1C(=O)OCc1ccc(Cl)cc1` showed a z-score of -0.138.

Molecule `CSc1nnc(-c2sc3cc(C(F)(F)F)cnc3c2-c2cccnc2)n1C` registered a z-score of 0.0193.

The molecule `COc1cc(CNCCSc2nnnn2C)cc(OC)c1OC` showed a z-score of -0.0463. The value for `CC1CCCC(NC(=S)NC(=O)c2ccccc2Br)C1C` (stereo unspecified) was 2.91. In turn, `CCSc1ncc(Cl)c(C(=O)N(Cc2ccc(N(C)C)cc2)C2CCS(=O)(=O)C2)n1` (stereo unspecified) returned a z-score of 0.00675. The value for `Cc1ccc2c(C(=O)CN3CCSCC3)c(C)[nH]c2c1` was -0.211. In turn, `CCOC(=O)c1c(-c2ccc(C)cc2)cn2ccccc12` gave a z-score of -0.192. The value for `CC(C)(C)c1ccc(/C=N/NC(=O)C(=O)NCCCN2CCOCC2)cc1` was 0.0375. In turn, `O=C(Nc1ccc2nsnc2c1)c1cccs1` gave a z-score of 0.717. The value for `CCOn1c(=O)c(-c2ccc(OC)c(OC)c2)[n+]([O-])c2ccccc21` was -0.237; that for `Cc1c(NC(=O)c2ccc(C(C)(C)C)cc2)cccc1[N+](=O)[O-]` was -0.278. The value for `O=C(CC1S/C(=N/N=C/c2c[nH]c3ccccc23)NC1=O)Nc1ccccc1` (stereo unspecified) was -0.0073. The value for `O=c1c(C(c2ccc(O)cc2)c2c(O)nc3n(c2=O)CCS3)c(O)nc2n1CCS2` was -0.51; that for `c1ccc(-c2cnn3c(-c4ccccc4)c(-c4ccccc4)nc3n2)cc1` was -0.202; that for `Cc1nc2oc3c(NCc4ccccc4)ncnc3c2c2c1COC(C)(C)C2` was -0.383. Regarding `CCc1ccc2nc(SCC(=O)N(CC)CC)c(C#N)cc2c1`, the z-score was -0.271. In turn, `O=C(Nc1ccccc1)N1C(=O)C2(OCCO2)c2ccccc21` returned a z-score of 0.828. The value for `CCOc1ccc(S(=O)(=O)Nc2cc(Sc3ncn[nH]3)c3oc(=O)sc3c2)cc1` was -1.07; that for `CCCCC1(Cc2ccc(OC)c([N+](=O)[O-])c2)C(=O)N(c2ccccc2)N(c2ccccc2)C1=O` was -0.162; that for `COc1ccc(OCC(=O)Nc2ccc(C)cc2)cc1` was -0.351. The value for `Cc1nn(Cc2c(Cl)cccc2Cl)c(C)c1NC(=O)c1cc(C(C)C)on1` was -0.283. The value for `Nc1nc(SCC(=O)Nc2cccc(Oc3ccccc3)c2)n[nH]1` was -0.397; that for `O=C(Nc1ccccc1-c1nc2ccccc2[nH]1)c1sc2ccccc2c1Cl` was -0.246. Consider `COc1ccc(F)cc1S(=O)(=O)N1CC(C)CC(C)C1` (stereo unspecified), for which the z-score was determined as 0.0802. The value for `S=c1[nH]nc(-c2cc(-c3ccco3)[nH]n2)n1-c1cccc2ccccc12` was -1.1; that for `COc1ccc2cc(C#N)c(SCC(=O)NNC(=O)Cc3ccccc3)nc2c1` was 0.337. The value for `COc1cc(OC)nc(Oc2ccccc2C(=O)Oc2ccccc2Cl)n1` was -0.567. In the case of `Cc1nn(-c2ccccc2)c2sc(C(=O)NNC(=O)COc3ccccc3)cc12`, the z-score worked out at 1.64. The value for `Cc1ccc(C)c(CN2C(=O)C(C)Oc3ccc(C)cc32)c1` (stereo unspecified) was -0.123; that for `O=C1NN(c2ccccc2)C(=O)/C1=C\c1cccc(OC(=O)c2cccs2)c1` was -0.349; that for `CCCS(=O)(=O)C(=C(Nc1ccccc1)Nc1ccccc1)S(=O)(=O)CCC` was 0.19. Molecule `COc1ccc(NC(=O)N2CCC(c3ccccc3)C2)c(OC)c1` (stereo unspecified) returned a z-score of -0.436. For `COCCn1nnnc1SCC(=O)c1ccc(F)cc1`, the z-score worked out at 0.0292. `COC(=O)c1ccccc1NC(=O)CN1CCN(C(=O)c2ccco2)CC1` came in with a z-score of 0.296. Next, `CCCCn1c(-c2cccnc2)n[nH]c1=S`: -0.106; `N#Cc1nc(-c2ccco2)oc1N1CCC(Cc2ccccc2)CC1`: 0.453. Next, `COc1ccc(-n2cnnc2SCC(=O)N2CCN(S(=O)(=O)c3ccccc3)CC2)cc1`: -0.105; `CCC(C)NC(=O)c1cn(-c2cccc(C)n2)cn1` (stereo unspecified): 0.0167. As to `CCCCCCCCC[n+]1cccc2c3ccccc3ccc21`, the z-score is 0.767. The value for `CC(C)NC(=O)c1cccc(C(F)(F)F)c1` was -0.244. Next, `CCCOc1ccc(-c2nc(N)n[nH]2)cc1`: -0.113.

`CSc1nc(-c2ccccc2)nn1C(=O)c1ccc(C)cc1` registered a z-score of -0.0769. The molecule `O=C(CSc1nnc(-c2ccccc2)o1)NCC1CCCCC1` displayed a z-score of 0.283. Next, `Cc1ccc(-c2nnc(NCc3ccccc3)c3ccccc23)cc1`: -0.103.

`O=C1S/C(=C/c2ccc(N3CCOCC3)o2)C(=O)N1Cc1c(F)cccc1Cl`: the z-score came to 0.332. On to `Cc1cc(C)nc(N/N=C/c2ccccc2OCc2ccc(Br)cc2)n1`, for which the z-score is -0.137.

Turning to `O=C(COC(=O)c1cccnc1)c1ccc(Cl)cc1`, the z-score was found to be 0.137. With `Cn1c(=O)n(C)c2cc([N+](=O)[O-])c(N3CCN(S(=O)(=O)c4ccccc4)CC3)cc21`, the z-score is -0.392.
